PubChem BioAssay AID488969 (Vanderbilt High Throughput Screening Facility, 2010)
Over roughly 110,000 compounds, “z-score” has its median near -0.1; the highest 2% begin near 2. Some of the results follow.

biological target: Metabotropic glutamate receptor 8 (Rattus norvegicus) (UniProt P70579); test: mGluR8 Gi/Go-coupled signaling modulation – cell-based, rat, thallium flux, HTS, primary screen (AID 488969); details: HEK293 rat mGluR8, GIRK (G protein-gated inwardly rectifying potassium channel) thallium flux, FluoZin2; at 10 µM; stronger effect = higher value; submaximal glutamate (EC20) added with thallium
UniProt P70579, sequence (P70579 whole entry, looked up): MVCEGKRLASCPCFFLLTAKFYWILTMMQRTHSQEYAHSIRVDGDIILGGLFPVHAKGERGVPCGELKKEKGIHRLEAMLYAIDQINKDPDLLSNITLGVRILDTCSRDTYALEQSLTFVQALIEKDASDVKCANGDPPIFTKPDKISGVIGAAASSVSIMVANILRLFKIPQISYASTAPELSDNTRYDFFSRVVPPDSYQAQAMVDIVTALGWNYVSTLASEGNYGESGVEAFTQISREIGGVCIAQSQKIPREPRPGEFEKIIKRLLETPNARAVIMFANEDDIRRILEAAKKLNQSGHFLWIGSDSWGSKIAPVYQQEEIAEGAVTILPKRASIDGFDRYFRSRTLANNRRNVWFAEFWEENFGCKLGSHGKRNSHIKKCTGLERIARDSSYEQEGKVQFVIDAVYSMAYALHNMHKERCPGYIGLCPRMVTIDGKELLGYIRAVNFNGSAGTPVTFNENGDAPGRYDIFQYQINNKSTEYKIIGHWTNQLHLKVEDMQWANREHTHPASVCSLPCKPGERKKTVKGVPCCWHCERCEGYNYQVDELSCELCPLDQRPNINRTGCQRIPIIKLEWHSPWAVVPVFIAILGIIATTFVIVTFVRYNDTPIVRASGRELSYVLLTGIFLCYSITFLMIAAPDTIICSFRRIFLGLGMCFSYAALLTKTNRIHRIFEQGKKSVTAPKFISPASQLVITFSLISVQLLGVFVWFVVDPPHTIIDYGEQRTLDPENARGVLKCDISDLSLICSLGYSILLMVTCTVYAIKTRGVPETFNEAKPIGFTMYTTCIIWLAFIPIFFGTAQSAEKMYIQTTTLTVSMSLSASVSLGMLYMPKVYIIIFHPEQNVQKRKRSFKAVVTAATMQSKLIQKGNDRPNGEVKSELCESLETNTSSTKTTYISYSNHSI

Q: For Cn1c(=O)c2c(ncn2CC(=O)Nc2ccccc2)n(C)c1=O, which z-score is on record?
A: 0.318

Q: Which z-score does the source give for CCCc1cc(C(=O)OC)c(NC(=O)c2cc(C)on2)s1 here?
A: 0.519

Q: With O=C(Nc1ccc(OC(=O)c2cccs2)cc1)c1ccco1 as the compound, how does the z-score read?
A: 0.627

Q: Which z-score does the source give for CCn1cc(Cl)c(C(=O)NNC(=O)CCn2cc([N+](=O)[O-])cn2)n1 here?
A: -0.211

Q: Which z-score does the source give for Cc1cccc(C(=O)N[C@H](C(=O)Nc2nccs2)C(C)C)c1 here?
A: 0.39

Q: Which z-score does the source give for Cc1cc(C)c(C#N)c(SCCS(=O)(=O)c2ccc(C(C)(C)C)cc2)n1 here?
A: -0.387

Q: CC1(C)Cc2c(c(-c3ccco3)nc3sc4c(NCCN5CCOCC5)ncnc4c23)CO1 was tested. Which z-score did it give?
A: 0.876

Q: Which z-score does the source give for N#CCCn1cnc2ccccc21 here?
A: -0.0199

Q: How did the z-score turn out when CC(Oc1ccc(Cl)cc1Cl)C(=O)/C=C/N(C)C (stereo not given) was run?
A: 0.0197

Q: Which z-score does the source give for CC(C)C(NC(=O)c1ccccc1)C(=O)NCc1ccccn1 (stereo not given) here?
A: 0.386

Q: Cc1c(N2C(=O)C(=O)/C(=C(/O)c3ccc(Cl)cc3)C2c2ccccc2)c(=O)n(-c2ccccc2)n1C (stereo not given) was tested. Which z-score did it give?
A: -0.314

Q: CCCCC(=O)Nc1ccc(NC(=O)c2ccc([N+](=O)[O-])cc2Cl)cc1OC was tested. Which z-score did it give?
A: -0.34

Q: For O=C(COC(=O)c1ccc(Cl)c(S(=O)(=O)N2CCCC2)c1)NC1CCCC1, which z-score is on record?
A: -2

Q: How did the z-score turn out when CCC(=O)Nc1ccc(Cl)c(NC(=O)c2cccnc2)c1 was run?
A: -0.146

Q: How did the z-score turn out when CC(C)(C)Cc1nnc(NS(=O)(=O)c2ccc(F)cc2)s1 was run?
A: -0.206

Q: How did the z-score turn out when CCOc1ccc(S(=O)(=O)N(CC(=O)O)c2ccc(C)cc2)cc1 was run?
A: 0.107

Q: How did the z-score turn out when O=C1NN=C(c2ccc(Cl)cc2)CC1c1cccc(Cl)c1 (stereo not given) was run?
A: 0.0439

Q: How did the z-score turn out when CN=c1scc(-c2ccc(Br)cc2)n1C was run?
A: 0.223

Q: For CCn1c(Cc2ccccc2)nnc1SCC(=O)Nc1nnc(-c2ccccc2)s1, which z-score is on record?
A: -0.126

Q: With CCN(CC)S(=O)(=O)c1ccc(C)c(NC(=O)Cn2c(=O)cnc3ccccc32)c1 as the compound, how does the z-score read?
A: -0.0978

Q: COc1cccc(/C=N/Nc2cc(-n3nc(C)cc3-c3ccccc3)ncn2)c1O was tested. Which z-score did it give?
A: -0.0565

Q: With O=C(Nc1cccc(C(=O)N2CCOCC2)c1)c1cccnc1 as the compound, how does the z-score read?
A: 0.2

Q: How did the z-score turn out when CCC(C)N(C(=O)COC(=O)CCc1c[nH]c2ccccc12)C1CCS(=O)(=O)C1 (stereo not given) was run?
A: 0.158

Q: Which z-score does the source give for O=C(CN1C(=O)COc2ccccc21)NCc1ccc(C(=O)O)cc1 here?
A: -0.0237

Q: Which z-score does the source give for CCc1ccc2oc(-c3cc(N)cc(C)c3O)nc2c1 here?
A: 0.32

Q: With Cc1nn(-c2ccccc2)c(N2CCCC2)c1/C=N/NC(=O)c1cc(-c2cccs2)nc2ccccc12 as the compound, how does the z-score read?
A: -0.174

Q: How did the z-score turn out when c1ccc(-c2nc3cc4ccccc4cc3[nH]2)nc1 was run?
A: -0.116

Q: With Cc1c(NC(=O)OCCNC(=O)COc2c(Cl)cccc2Cl)sc(=S)n1C as the compound, how does the z-score read?
A: -0.376

Q: Cc1cc(OCC(F)(F)C(F)(F)C(F)(F)C(F)F)nc(N)n1 was tested. Which z-score did it give?
A: -1.04

Q: For COc1ccc(-c2c/c(=N\c3nc(-c4ccccc4)c(C)s3)c3ccccc3o2)cc1O, which z-score is on record?
A: -0.00329

Q: For Cc1ccc(NC(=O)CCC(=O)OCC(=O)c2ccc(Oc3ccc([N+](=O)[O-])cc3)cc2)cc1, which z-score is on record?
A: -0.122

Q: For O=C(NC(C(=O)c1ccccc1)n1cnccc1=O)c1ccccc1 (stereo not given), which z-score is on record?
A: -1.21

Q: With CCC(C(=O)O/N=C(\N)c1ccc(Cl)cc1)c1ccccc1 (stereo not given) as the compound, how does the z-score read?
A: -0.417

Q: With O=C(N/N=C/c1ccc(OCc2ccccc2)cc1)c1cccs1 as the compound, how does the z-score read?
A: 0.0314

Q: How did the z-score turn out when O=C(c1ccco1)N1CCN(CCOCCOc2cccc3ccccc23)CC1 was run?
A: -0.304

Q: COc1cc(NC(=O)Cn2nnc(-c3ccncc3)n2)cc(OC)c1 was tested. Which z-score did it give?
A: 0.284

Q: Which z-score does the source give for N#CCC(CNc1ncc(C(F)(F)F)cc1Cl)OC(=O)c1ccc(Cl)cc1 (stereo not given) here?
A: -0.0887

Q: CC(=O)/C(N)=N/Nc1cccc(Cl)c1 was tested. Which z-score did it give?
A: -0.157

Q: CCN(CC)CCCN1C(=O)C(=O)/C(=C(/O)c2ccc(C)cc2)C1c1ccccn1 (stereo not given) was tested. Which z-score did it give?
A: -0.236

Q: How did the z-score turn out when COc1ccc(S(=O)(=O)NCCSCc2cccs2)cc1 was run?
A: 1.32

Q: How did the z-score turn out when CN1CCN(S(=O)(=O)c2ccc(Br)c3nsnc23)CC1 was run?
A: 0.0275

Q: With Cc1ccccc1C(NC(N)=O)c1ccccc1 (stereo not given) as the compound, how does the z-score read?
A: 0.158

Q: For CCOC(=O)c1c(NC(=O)CC2Nc3cc(C)c(C)cc3NC2=O)sc(C)c1C (stereo not given), which z-score is on record?
A: 0.0319

Q: CCCCSc1nnc2c(n1)[nH]c1ccccc12 was tested. Which z-score did it give?
A: 1.14

Q: For O=C(CCC1CCCCC1)Nc1cccnc1, which z-score is on record?
A: 0.982

Q: For CCOC(=O)C1CCN(C(=O)Cn2cc(C#N)c3ccccc32)CC1, which z-score is on record?
A: 0.0716

Q: How did the z-score turn out when O=C(CSCc1ccc(Cl)cc1)N1CCN(Cc2ccc3c(c2)OCO3)CC1 was run?
A: 0.167

Q: With COc1ccc(-c2cc(C3CCN(c4ncccc4[N+](=O)[O-])CC3)[nH]n2)cc1 as the compound, how does the z-score read?
A: 0.0275

Q: With O=C(O)c1ccc(NS(=O)(=O)c2ccc(Cl)c(Cl)c2)cc1O as the compound, how does the z-score read?
A: -0.145

Q: How did the z-score turn out when CC(C)(C)C1CCc2c(sc(NC(=O)CSc3ncn[nH]3)c2C#N)C1 (stereo not given) was run?
A: -0.123

Q: For CCCOc1cccc(C(=O)NC(=S)Nc2ccccc2)c1, which z-score is on record?
A: 0.0309

Q: Which z-score does the source give for O=C(Cc1cn2ccsc2n1)OCc1ccccc1 here?
A: -0.286

Q: For Cc1ccc(-c2[nH]nc(N)c2N=Nc2cccc(Cl)c2C)cc1, which z-score is on record?
A: 0.00456

Q: Which z-score does the source give for Cc1nn(Cc2c(F)c(F)c(F)c(F)c2F)c(C)c1NC(=O)c1cccc(COc2ccc(Cl)cc2)c1 here?
A: 0.217

Q: How did the z-score turn out when Cc1ccc(S(=O)(=O)c2nnn3c2nc(N2CCCCC2)c2ccccc23)cc1 was run?
A: -0.414
